In all, about 33,000 sequences were measured (“E-score (-0.5 to 0.5)”: median about -0.054, highest 2% from about 0.39 on). The list shows a part of the results.
target: Ylr278c (UniProt Q05854); test: PBM E-score (8-mer binding enrichment) (E-score (-0.5 to 0.5)); higher = stronger / more preferred TF binding; most listed sequences are background and not binding sites; settings: protein concentration: 200 nM; construct: GST-DNA-binding domain
Summary of the method: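 Bound GST-tagged yeast transcription factors, applied at about 100-200 nM to double-stranded universal all-10-mer Agilent arrays, were detected with fluorescent anti-GST. Scans were normalised with masliner. A modified Wilcoxon-Mann-Whitney statistic, the E-score, was assigned to each ungapped eight-base word pooled with its reverse complement by the Universal PBM Analysis Suite.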

Sequence | PBM E-score
AATAGACA | -0.221
GACCACTA | -0.00356
GTGTACAA | 0.0677
ACCGGAGT | 0.481
GGCTTTAC | 0.243
ACGCTCCC | 0.0269
AAGCCATA | -0.379
GAACGGTC | 0.0597
TCTTTTCA | -0.0575
ATTACCAC | -0.165
AGGAAAAT | 0.037
AATATATC | 0.154
GAAGCTTA | -0.11
AACTGACA | -0.167
CTATGTAC | -0.195
GAGACGGC | 0.151
CGGCACCA | 0.191
GATTAAGA | 0.0498
GGATCAGA | -0.0894
AATACCAA | -0.0497
AACTAATC | -0.047
GGTCGAAC | -0.142
GGTAGTAA | -0.167
AAGGTCGA | -0.0519
AGATTGCG | 0.14

Sequence | PBM E-score
GCGCGCTA | 0.0544
GTATCTCA | -0.0479
CACCGTCA | -0.00062
CAGAGCTG | -0.238
AATCAGAC | -0.0615
CTGGGAAA | -0.0994
AGTCATAA | 0.0358
GGAGAAAA | 0.299
AGATGACA | -0.145
TCATCTAA | -0.0192
TATCCGGA | 0.469
CCACAACG | 0.0154
GCCGTAAA | 0.193
CAATCGTG | 0.0226
CCGGGGCG | 0.42
CATCCACG | -0.153
GCCATGCA | -0.0698
ATTCTTTA | -0.162
GTCTAGTA | -0.0674
ATGGCTGC | -0.196
ACGGAACG | 0.271
ACTAGTTA | -0.145
CCTAATAC | -0.132
TCAGAAGA | -0.125
CTTATAAA | 0.0889

Sequence | PBM E-score
CGCAAACA | -0.0676
CAGTGGCC | -0.123
CCCCTTGC | -0.267
CAAATAGC | 0.00821
CTCCTGTA | 0.0539
ACGACCGC | 0.142
CGGGCAAC | 0.157
GTACCACA | -0.139
CATAATAG | -0.116
AGCTTCAT | 0.0699
CGACCCGC | -0.0064
CCATATCA | -0.0472
ACGCCTGG | -0.157
GTTTTTTA | -0.0343
CCGGTAGG | 0.219
GCTTCTCA | -0.0943
CACTCGGC | 0.246
AGTCTTTC | -0.019
AACTACTC | 0.13
CCTCGGGA | 0.119
AACTTTAC | 0.0269
ATGCACCA | -0.203
AAGCGAAT | 0.0335
GGATACCC | 0.084
CGCGTCCA | 0.0142

Sequence | PBM E-score
CGCCTTTC | 0.0647
ATAAATGA | -0.144
TAATTGAA | -0.0653
AGACGAAA | 0.112
CCAGCGCC | -0.0308
AATCCCAT | -0.149
CGAGATCG | 0.0617
GATCCCGC | 0.232
CCGAGTCC | 0.314
AAGATGCA | -0.0953
ACGGTACC | 0.122
ATGTACAA | 0.026
ACAATATA | 0.109
CTATGCAA | -0.242
CTCCAGTA | -0.00465
CGCTCCTC | -0.0652
TAACCAGA | -0.187
ACTGCCAT | -0.153
CGTTCCGA | 0.288
ACCCTACG | -0.0504
AGTCATAC | -0.114
ACCGGGAT | 0.388
GCACATCC | 0.0515
GTCGCAAA | 0.0145
ATCCTCTC | -0.106

Sequence | PBM E-score
GGGAGGCA | -0.0852
ACAAAGAT | -0.217
AGGCTGTA | -0.146
CGTACCCC | 0.11
ACATTATC | 0.13
AATTCCTA | -0.0875
CTAGGCAG | -0.0962
CCACAACA | -0.225
ACACCGGT | 0.324
ACATGGAA | -0.0054
GAGTCACA | -0.121
CGACCAGC | 0.034
TCCTACGA | -0.178
TTCCCGAA | 0.294
AAGCTCTC | -0.0008
AGTGGGGA | 0.0123
ATATTTTG | 0.0483
ACTGTGTA | -0.0865
AGTTACTC | -0.0438
ACGCTATA | -0.255
ATATATAA | 0.011
AAATTGAC | 0.034
CCTTTTAG | -0.317
CCCGTATA | 0.145
ATGTCTCA | -0.171

Sequence | PBM E-score
ATGCGAGC | -0.0746
ACTCTGCT | -0.102
CCACACTC | 0.0435
GCACGTAC | -0.141
ACACTTTC | 0.104
ATACAAAA | -0.0304
GCTGTGTA | -0.165
CTCTAAGC | 0.0461
ACAAAGAC | -0.0867
CATAGGGA | -0.262
CCCCCTCA | -0.336
CCGAATAG | 0.245
CATCAGTC | 0.00449
ACCTAGGC | -0.109
ACCCCAAC | -0.026
ACGCAGTG | -0.119
ACGTGGAT | -0.233
GAACAAAA | -0.02
TCTTTGAA | -0.132
CACTATCA | -0.165
ATTTCTAG | 0.144
ACCCAGGA | -0.189
CCCACATA | -0.0575
CAGTTCAA | -0.0886
AACCAAAA | 0.0239

Sequence | PBM E-score
CGCTCCGC | 0.317
CCAGCACA | -0.152
TAGGCTAA | -0.152
GTAGTGAA | -0.0691
CACGCGAA | -0.142
CACAAGTG | -0.271
AATCTGCA | -0.262
ATCCTTTA | -0.00727
ATTTATGA | -0.0656
ATGATCGG | 0.257
ACGGTTAA | -0.0441
GTGTATGA | -0.102
AGAGGTAT | -0.0593
AAATTATC | 0.0288
CGTTTGAC | -0.0124
GACGTAAC | -0.0409
GTGTAGGA | 0.0478
AGATTGAC | -0.123
ACAGGCGC | -0.0621
AGCAGAAG | -0.00493
GAAGGATA | 0.0194
GAGCGCAA | -0.129
TCGTATCA | -0.111
GCGGGTTA | 0.213
CGAGTCAC | -0.0588

Sequence | PBM E-score
CCGCGAGA | 0.145
AGTCTTAA | -0.273
CCATAACA | -0.11
ATTTCTAA | 0.00098
CCCAGAAC | -0.136
AGCGCGAC | 0.0449
ATTGGGTC | 0.109
ACCGCTCG | -0.00096
CTAGCTAA | -0.128
GTTGAGTA | -0.0603
AATCCTAC | -0.0493
CATCAAGC | -0.0328
AGTCCAGC | -0.0737
ATTCGGCA | 0.226
CGATTCCA | 0.056
AACATTCC | 0.239
AACCTTTG | -0.0514
GGCCGCCC | 0.0938
GGTTAACC | 0.0591
AAGCGTCA | -0.245
ATGAAACC | -0.0249
CGAGGTTC | 0.0751
AGGTTACC | 0.138
CGGAGTTC | 0.494
AATTGTGA | -0.247

Sequence | PBM E-score
AGTCCCAA | -0.0186
TGTGAGAA | 0.0311
TCCACCCA | -0.258
GAGAGTCA | -0.153
ACGGGATC | 0.109
TAAGTCTA | -0.137
GCACTGAA | -0.106
ATCAGCTC | -0.0203
ATGTAGTA | 0.0501
CGGCCCCC | 0.173
TGTTGAAA | -0.0138
CTTTAGGA | -0.223
CTAACCCA | -0.13
GGGATTTA | 0.287
AAGCTGTG | -0.176
ATGAGCTA | -0.15
ACCATCAT | -0.16
GTTAAATA | 0.0524
CAGCACGA | -0.171
GAACGGCA | 0.17
GCCGCTAC | 0.259
AGTATGTG | -0.0453
CACGTAAC | -0.0939
ACCTTACT | -0.0387
TAAGGCGA | -0.0928

Sequence | PBM E-score
GATGGATA | -0.0056
AATGCGAA | 0.0719
GTACGTAA | -0.263
AACAGAGT | -0.114
CCCAAGAA | -0.0842
ATAACTCG | 0.0232
GTTATAAC | -0.0431
GCCATAAA | -0.0598
AATCCAAT | -0.0416
GGTAAACC | 0.167
GTCACGCA | -0.158
ACCACCGG | 0.366
CAGCAAGC | -0.271
ACTCACTC | 0.0211
CACCACTC | 0.102
AGCGGCAA | 0.0714
GAGCCCCA | -0.0517
AATTGAAC | -0.176
ACCCCTGG | -0.0693
CCATACAG | -0.241
ACTATAGA | 0.0377
AGCGCGCA | 0.152
AATCCCTC | -0.0461
CGAGCTTC | 0.028
CCATACTC | -0.027

Sequence | PBM E-score
CATTTGCA | -0.115
AAGTTGAA | -0.108
AGAACCTA | -0.227
ATGTCTCG | 0.0207
AGTTCAAG | -0.028
ACCATCTA | -0.077
GCCTATGA | -0.194
GCTGACTA | -0.0839
GACGCAAA | -0.00443
TAGCTTAA | -0.198
ACTATGCA | -0.128
TAATATAA | 0.121
GAAGCGCC | 0.147
ATGCGGTC | 0.163
AATGAGTG | -0.0185
CTGATCGC | -0.139
AAGAATCC | 0.066
CCATGCGA | -0.0449
ATCACTAA | -0.0464
CCCGCCCC | 0.361
AAGGATGC | -0.276
CCTGCTAG | -0.0936
ACATCTCG | 0.0498
AGGCATTC | -0.0371
GAGTACCA | 0.00448

Sequence | PBM E-score
AAACACCT | -0.135
TATCGTGA | -0.0632
AGGTGTAC | -0.2
AGTTCCAT | -0.105
AAGATGTG | -0.175
GGACTACC | 0.193
ACGCCCAC | -0.0697
GGTTGTGA | -0.0147
GGCGTCTA | -0.096
TTAGACAA | 0.0185
GCGCTGAA | 0.102
AAGAAAAA | -0.0988
ATGACCTG | -0.135
ACGCACCG | 0.11
CGTTGCGA | -0.109
CTACTGAG | -0.0898
TCCAAAGA | -0.154
CCTCAATA | -0.148
ATTACTGA | -0.318
CCTAAGCC | -0.073
CCCGAACC | 0.251
CAAACCAG | -0.23
CCGGTGCG | 0.369
CAGTGGTC | -0.0541
GGTCCTGA | -0.00471

Sequence | PBM E-score
GGTAACAC | -0.0507
CCTGGTAG | -0.236
CCTTATAC | -0.183
CAGTCACG | -0.108
CACACGCA | -0.147
CACACCGG | 0.283
AAATATTT | -0.0704
CTGCTGGC | -0.119
ACCGTCCG | 0.3
AATTTTCA | -0.091
GACACTCA | -0.115
CCACTCTA | -0.218
ACTCCACT | -0.269
CTGCCAGA | -0.129
ACAGCTTG | -0.187
TAATGCGA | -0.00926
CTTTCACC | 0.111
ATATACCG | 0.271
CGCAGCTA | -0.0597
AGTACACC | -0.0926
CACTGGGC | 0.00217
GCTAATCC | 0.159
CAAGATCG | 0.047
CTGTGGAA | -0.0269
CTGTAAGC | -0.172

Sequence | PBM E-score
GGTGCATA | 0.0221
TTGAGAAA | -0.137
GCGGACCA | 0.279
ATGTAATA | -0.0246
CTTGAACA | -0.0133
CAAGAGCC | -0.0285
AAGCCGGA | 0.417
AACGTCGC | -0.089
TATCTGCA | -0.177
ACCTCCCG | 0.0782
AATCCGGT | 0.442
CAGGGGAC | -0.151
CGATGGCG | 0.145
TACAAGGA | 0.0808
GGCTCCTA | -0.0379
AAATTCTT | -0.168
CTTCACCC | 0.133
GAAACCAC | -0.11
ACGTGCAA | 0.00724

Reference: the supplement of paper PMC3334620
